# Where “and” joins values, the source holds several entries; their conditions need not be identical. Equal entries are not always repeated. In all, about 410,000 compounds went through this assay and about 6,400 (1.6%) were called active. The inconclusive results got no clear call from the source; some entries with a clear call stand among them for comparison. The call rests on the fitted dose curve; in most records, active means well fitted inhibition curve with a large enough effect; inconclusive means small, poorly fitted or top-dose-only effect; inactive means no such curve, though single readings can be large or run the other way. Potencies beside an inconclusive call are fits to weak or partial responses and may not hold up.
# Molecular target: Glucagon-like peptide 1 receptor (Homo sapiens) (UniProt P43220)
# Test: qHTS of GLP-1 Receptor Inverse Agonists (Inhibition Mode); further: nearly all actives have a fitted effect of over 55% in size
# Conditions: HEK293 GLP-1R CRE-luciferase, luminescence, 24 h, GLP-1R form is constitutively active; activity change, negative = inhibition: at 38.3 µM (top of the series) unless noted
# Procedure, shortened: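 Cells are plated, allowed 12 hours at 37 deg C, then treated with compounds for 24 hr before luciferase detection reagent is added and luminescence is read after 12 min at room temperature. The HEK293 line carries constitutively active GLP-1R with a cAMP-responsive reporter.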
# On the % scale 0 is the no-effect control and ±100 the full control effect; potency means the concentration at half of the fitted maximal effect; tags describe the fitted curve by direction and shape.
# Sequence of UniProt P43220 (P43220 whole entry, looked up): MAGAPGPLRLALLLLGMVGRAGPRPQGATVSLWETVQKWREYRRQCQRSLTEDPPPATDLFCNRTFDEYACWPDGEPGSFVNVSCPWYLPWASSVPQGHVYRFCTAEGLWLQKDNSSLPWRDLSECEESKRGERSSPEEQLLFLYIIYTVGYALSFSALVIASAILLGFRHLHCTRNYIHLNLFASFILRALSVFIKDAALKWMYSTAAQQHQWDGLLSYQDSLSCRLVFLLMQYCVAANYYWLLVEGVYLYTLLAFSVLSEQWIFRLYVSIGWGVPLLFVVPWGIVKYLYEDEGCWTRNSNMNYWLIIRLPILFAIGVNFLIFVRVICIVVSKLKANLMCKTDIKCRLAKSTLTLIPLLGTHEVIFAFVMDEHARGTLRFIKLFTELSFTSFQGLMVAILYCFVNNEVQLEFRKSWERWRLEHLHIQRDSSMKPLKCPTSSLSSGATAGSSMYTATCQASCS
Structure (SMILES),Potency,"activity change, negative = inhibition"
COc1ccc(C)cc1NC(=O)Cc1ccc(NC(=O)N2CCCCc3ccccc32)cc1,"inconclusive: 11.2 µM [inhibitor, partial curve, poor fit]",
CCc1noc(C)c1C(=O)Nc1nc(-c2ccccc2)cs1,"inconclusive: 14.1 µM [inhibitor, single point]",
COc1cccc(OC)c1C(=O)NC(=S)Nc1ccc2c(c1)OCCO2,,inactive: -20.1%
O=C(COc1cccnc1[N+](=O)[O-])Nc1cccc2ccccc12,"inconclusive: 10 µM [inhibitor, partial curve]",
O=C(c1ccc(F)cc1)N1CCC(C(=O)N(Cc2ccccc2)c2ccccc2)CC1,"inconclusive: 12.6 µM [inhibitor, partial curve, poor fit]",
CCOC(=O)C1=C(CN(C)Cc2ccccc2)NC(=O)NC1c1ccc(OC(C)C)cc1 (stereo not drawn),"inconclusive: 28.2 µM [inhibitor, single point]",
O=C(COC(=O)C12CC3CC(CC(C3)C1)C2)NCc1ccco1,"inconclusive: 28.2 µM [inhibitor, single point]",
O=[N+]([O-])c1ccccc1/C=C/C=N/n1c(-c2ccc(Cl)cc2)n[nH]c1=S,,inactive: -19.3%
COc1ccccc1CN(C)C(=O)c1ccccc1Sc1ccccc1C#N,"inconclusive: 10 µM [inhibitor, partial curve, poor fit]",
Cc1cccc(-n2ccnc2SCC(=O)Nc2cc(C(F)(F)F)ccc2Cl)c1,"inconclusive: 10 µM [inhibitor, single point]",
CCCCN(C)CC(O)Cn1cc(/C=C/C(=O)c2ccc(OCC)cc2)c2ccccc21 (stereo not drawn),"inconclusive: 17.8 µM [inhibitor, partial curve, poor fit]",
Cc1ccc(NC(=O)CCSCCC(=O)Nc2ccc(C)c(C)c2)cc1C,"inconclusive: 3.55 µM [inhibitor, partial curve]",
CSCCCN1CCCC(CO)(Cc2ccc(F)cc2)C1 (stereo not drawn),"inconclusive: 28.2 µM [inhibitor, single point]",
Cc1cccc(NC(=O)NC2CCCc3ccccc32)c1 (stereo not drawn),"inconclusive: 31.6 µM [inhibitor, single point]",
O=C(NCCc1ccccc1)c1ccc(-c2ccccc2Cl)o1,"inconclusive: 28.2 µM [inhibitor, single point]",
COc1ccc(C)cc1NC(=O)CNc1ccccc1CN(C)C1CCCCC1,"inconclusive: 10 µM [inhibitor, partial curve, poor fit]",
COc1ccc(N2CCN(C(c3cc(OC)ccc3OC)c3nnnn3Cc3ccco3)CC2)cc1 (stereo not drawn),"inconclusive: 15.8 µM [inhibitor, partial curve, poor fit]",
FC(F)(F)c1cccc(NC(=S)NCc2ccccc2)c1,"inconclusive: 3.98 µM [inhibitor, partial curve, poor fit]",
O=C(Nc1ccc(NC(=O)C2CCCCC2)nc1)c1ccccn1,"inconclusive: 11.2 µM [inhibitor, single point]",

Structure (SMILES),Potency,"activity change, negative = inhibition"
Cc1ccc(C(=O)OC(C)C(=O)N(C)C2CCCCC2)cc1S(=O)(=O)N1CCCCC1 (stereo not drawn),"inconclusive: 7.94 µM [inhibitor, partial curve, poor fit]",
COc1ccc(-c2csc(N3C(=O)C4C5c6ccccc6C(c6ccccc65)C4C3=O)n2)cc1 (stereo not drawn),"inconclusive: 3.98 µM [inhibitor, partial curve, poor fit]",
CCCCNc1c(-c2cccc(SC3CCCCC3)c2)nc2ccc(Cl)cn12,"inconclusive: 10 µM [inhibitor, partial curve] and inconclusive: 11.2 µM [inhibitor, partial curve, poor fit]",
O=C(NCc1csc2ccccc12)Nc1cc(Cl)cc(Cl)c1,"inconclusive: 4.47 µM [inhibitor, full curve, poor fit]",
COC(=O)C1=CN(C(C)c2ccccc2)C=C(C(=O)OC)C1c1cc(OC)c(OC)c(OC)c1 (stereo not drawn),"inconclusive: 28.2 µM [inhibitor, single point]",
CCCCC(=O)Nc1cccc(-c2nc3ccccc3s2)c1,"inconclusive: 10 µM [inhibitor, partial curve]",
Cc1ccc(C)c(S(=O)(=O)Nc2ccccc2C(=O)Nc2ccccc2N2CCOCC2)c1,"inconclusive: 8.91 µM [inhibitor, partial curve, poor fit]",
CC1CCN(N=Nc2nc3c([nH]2)c(=O)n(C)c(=O)n3C)CC1,,inactive: 10.8%
CCOC(=O)c1[nH]c(C)c(C(=O)NCCc2ccccc2)c1C,,inactive: -5.01%
CC(C)NC(=S)NC(=O)/C=C/c1ccc(F)cc1,"inconclusive: 28.2 µM [inhibitor, single point]",
CC1=NNC(=O)/C1=C\c1cn(-c2ccccc2)nc1-c1cccs1,"inconclusive: 22.4 µM [inhibitor, single point]",
CN(c1ccc(Cl)cc1)S(=O)(=O)c1nnc(NC(=O)c2ccco2)s1,inactive,
CC(=O)C1=NN(c2ccccc2)C2(S1)S/C(=C\c1ccccc1)C(=O)N2c1ccccc1 (stereo not drawn),"inconclusive: 11.2 µM [inhibitor, partial curve, poor fit]",
Cc1ccc(SCC(=O)Nc2cc(S(=O)(=O)N3CCCCC3)ccc2C)cc1,"inconclusive: 11.2 µM [inhibitor, partial curve, poor fit]",
CCOC(=O)CCSCC(=O)N1N=C(c2cccs2)CC1c1ccc(C)cc1 (stereo not drawn),"inconclusive: 28.2 µM [inhibitor, single point]",
Cn1ncc(Cl)c1C(=O)NC1C2CC3CC(C2)CC1C3 (stereo not drawn),"inconclusive: 28.2 µM [inhibitor, partial curve, poor fit]",
CCCNC(=O)OCCC12CC3CC(CC(C3)C1)C2,"inconclusive: 28.2 µM [inhibitor, single point]",
CCCCc1ccc(NC(=O)CN(C)CC(=O)Nc2ccccc2Cl)cc1,"inconclusive: 14.1 µM [inhibitor, partial curve, poor fit]",
O=C(c1cnn2c(C(F)(F)F)cc(-c3ccco3)nc12)N1CCCCCC1,"inconclusive: 7.94 µM [inhibitor, partial curve]",

# Reference: PubChem BioAssay AID624417 (National Center for Advancing Translational Sciences (NCATS), 2012)
